Experimental data taken from the supplement of paper PMC12217912.
This is one part of the list. Sequences were assembled here from the parent chain. Values near 0.05 are background.

B1: TEV protease; numbered along this chain (parent)
chain: MGESLFKGPRDYNPISSSICHLTNESDGHTTSLYGIGFGPFIITNKHLFRRNNGTLVVQSLHGVFKVKDTTTLQQHLVDGRDMIIIRMPKDFPPFPQKLKFREPQREERICLVTTNFQTKSMSSMVSDTSCTFPSGDGIFWKHWIQTKDGQCGSPLVSTRDGFIVGIHSASNFTNTNNYFTSVPKNFMELLTNQEAQQWVSGWRLNADSVLWGGHKVFMVKPEEPFQPVKEATQL

Variants of: B1
Experiment: raw area under fraction-flipped curve 0-4 h after induction (AUC4h, not background-subtracted), DNA-recorder readout of cleavage of the substrate (dimensionless); higher = more cleavage of the substrate by the protease variant
Settings: temperature: 34 °C; time window: 0-4 h after rhamnose induction
Method: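 In vivo DNA recorder in E. coli TOP10(DE3) ΔrhaA at 34 °C. Each TEVp single-site mutant (parent TEVp 0) is paired with a single-site variant of the 7-mer TEVs (canonical ENLYFQ|S). The substrate sits between flexible linkers in a Bxb1-sfGFP-TEVs-SsrA fusion, so cleavage stabilises Bxb1 and speeds flipping of a recombination array, read by NGS. The value is the raw area under the fraction-flipped curve over 0-4 h after rhamnose induction (AUC4h), with ≥20 reads per time point. It is not background-subtracted; inactive controls average about 0.047.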
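Note: Bxb1 expression induced with 0.2% (w/v) L-rhamnose at OD600 near 0.5, cultures sampled hourly, flipped fraction per protease–substrate barcode pair counted by paired-end Illumina sequencing.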

| Variant | area with substrate ECLYFQS | area with substrate EDLYFQS | area with substrate EELYFQS | area with substrate EGLYFQS | area with substrate EHLYFQS | area with substrate EKLYFQS | area with substrate ELLYFQS | area with substrate EMLYFQS | area with substrate EQLYFQS | area with substrate ERLYFQS | area with substrate ESLYFQS | area with substrate ETLYFQS | area with substrate EVLYFQS | area with substrate EWLYFQS | area with substrate EILYFQS | area with substrate EPLYFQS | area with substrate EYLYFQS | area with substrate EFLYFQS |
| --- | --- | --- | --- | --- | --- | --- | --- | --- | --- | --- | --- | --- | --- | --- | --- | --- | --- | --- |
| MGESLFKGPRDYNPISSSICHLTNESDGHTTSLYGIGFGPFIITNKHLFRRNNGTLVVQSLHGVFKVKDTTTLQQHLVDGRDMIIIRMPKDFPPFPQKLKFREPQREERSCLVTTNFQTKSMSSMVSDTSCTFPSGDGIFWKHWIQTKDGQCGSPLVSTRDGFIVGIHSASNFTNTNNYFTSVPKNFMELLTNQEAQQWVSGWRLNADSVLWGGHKVFMVKPEEPFQPVKEATQL [I110S] | 0.0576 | 0.0577 | 0.0685 | 0.0182 | 0.0536 | 0.0671 | 0.0587 | 0.0405 | 0.0685 | 0.0597 | 0.0677 | 0.0618 | 0.0545 | 0.0466 | – | – | – | – |
| MGESLFKGPRDYNPISSSICHLTNESDGHTTSLYGIGFGPFIITNKHLFRRNNGTLVVQSLHGVFKVKDTTTLQQHLVDGRDMIIIRMPKDFPPFPQKLKFREPQREERICEVTTNFQTKSMSSMVSDTSCTFPSGDGIFWKHWIQTKDGQCGSPLVSTRDGFIVGIHSASNFTNTNNYFTSVPKNFMELLTNQEAQQWVSGWRLNADSVLWGGHKVFMVKPEEPFQPVKEATQL [L112E] | 0.0605 | – | – | 0.0622 | 0.0578 | 0.0661 | 0.0507 | 0.063 | 0.0656 | 0.0625 | 0.0647 | 0.233 | 0.0671 | – | 0.0367 | 0.0517 | 0.0607 | – |
| MGESLFKGPRDYNPISSSICHLTNESDGHTTSLYGIGFGPFIITNKHLFRRNNGTLVVQSLHGVFKVKDTTTLQQHLVDGRDMIIIRMPKDFPPFPQKLKFREPQREERICRVTTNFQTKSMSSMVSDTSCTFPSGDGIFWKHWIQTKDGQCGSPLVSTRDGFIVGIHSASNFTNTNNYFTSVPKNFMELLTNQEAQQWVSGWRLNADSVLWGGHKVFMVKPEEPFQPVKEATQL [L112R] | 0.117 | 0.0974 | 0.0892 | – | – | – | – | – | 0.133 | 0.0907 | 0.0924 | – | 0.108 | 0.079 | 0.0819 | 0.101 | – | – |
| MGESLFKGPRDYNPISSSICHLTNESDGHTTSLYGIGFGPFIITNKHLFRRNNGTLVVQSLHGVFKVKDTTTLQQHLVDGRDMIIIRMPKDFPPFPQKLKFREPQREERICLQTTNFQTKSMSSMVSDTSCTFPSGDGIFWKHWIQTKDGQCGSPLVSTRDGFIVGIHSASNFTNTNNYFTSVPKNFMELLTNQEAQQWVSGWRLNADSVLWGGHKVFMVKPEEPFQPVKEATQL [V113Q] | 0.072 | 0.0677 | – | – | 0.113 | 0.0912 | – | 0.0751 | 0.0903 | 0.108 | – | 0.092 | 0.0747 | – | 0.0771 | 0.061 | – | – |
| MGESLFKGPRDYNPISSSICHLTNESDGHTTSLYGIGFGPFIITNKHLFRRNNGTLVVQSLHGVFKVKDTTTLQQHLVDGRDMIIIRMPKDFPPFPQKLKFREPQREERICLVATNFQTKSMSSMVSDTSCTFPSGDGIFWKHWIQTKDGQCGSPLVSTRDGFIVGIHSASNFTNTNNYFTSVPKNFMELLTNQEAQQWVSGWRLNADSVLWGGHKVFMVKPEEPFQPVKEATQL [T114A] | 0.101 | – | – | 0.0843 | – | 0.128 | 0.08 | – | 0.109 | 0.103 | 0.105 | – | – | – | 0.09 | 0.116 | – | – |
| MGESLFKGPRDYNPISSSICHLTNESDGHTTSLYGIGFGPFIITNKHLFRRNNGTLVVQSLHGVFKVKDTTTLQQHLVDGRDMIIIRMPKDFPPFPQKLKFREPQREERICLVKTNFQTKSMSSMVSDTSCTFPSGDGIFWKHWIQTKDGQCGSPLVSTRDGFIVGIHSASNFTNTNNYFTSVPKNFMELLTNQEAQQWVSGWRLNADSVLWGGHKVFMVKPEEPFQPVKEATQL [T114K] | 0.118 | – | 0.0913 | – | 0.101 | 0.11 | – | – | 0.126 | 0.107 | 0.0871 | – | 0.0954 | – | 0.106 | – | – | – |
| MGESLFKGPRDYNPISSSICHLTNESDGHTTSLYGIGFGPFIITNKHLFRRNNGTLVVQSLHGVFKVKDTTTLQQHLVDGRDMIIIRMPKDFPPFPQKLKFREPQREERICLVWTNFQTKSMSSMVSDTSCTFPSGDGIFWKHWIQTKDGQCGSPLVSTRDGFIVGIHSASNFTNTNNYFTSVPKNFMELLTNQEAQQWVSGWRLNADSVLWGGHKVFMVKPEEPFQPVKEATQL [T114W] | 0.0922 | – | 0.113 | 0.0785 | 0.111 | 0.0926 | 0.0715 | 0.111 | 0.114 | 0.135 | 0.0919 | – | 0.0939 | 0.0937 | 0.108 | – | – | 0.0979 |
| MGESLFKGPRDYNPISSSICHLTNESDGHTTSLYGIGFGPFIITNKHLFRRNNGTLVVQSLHGVFKVKDTTTLQQHLVDGRDMIIIRMPKDFPPFPQKLKFREPQREERICLVTENFQTKSMSSMVSDTSCTFPSGDGIFWKHWIQTKDGQCGSPLVSTRDGFIVGIHSASNFTNTNNYFTSVPKNFMELLTNQEAQQWVSGWRLNADSVLWGGHKVFMVKPEEPFQPVKEATQL [T115E] | 0.0566 | 0.124 | 0.114 | – | 0.132 | 0.106 | – | 0.166 | 0.12 | 0.0963 | – | – | – | 0.0959 | – | 0.138 | 0.129 | – |
| MGESLFKGPRDYNPISSSICHLTNESDGHTTSLYGIGFGPFIITNKHLFRRNNGTLVVQSLHGVFKVKDTTTLQQHLVDGRDMIIIRMPKDFPPFPQKLKFREPQREERICLVTTNFMTKSMSSMVSDTSCTFPSGDGIFWKHWIQTKDGQCGSPLVSTRDGFIVGIHSASNFTNTNNYFTSVPKNFMELLTNQEAQQWVSGWRLNADSVLWGGHKVFMVKPEEPFQPVKEATQL [Q118M] | 0.0668 | – | 0.0844 | – | 0.105 | – | – | – | 0.0997 | 0.149 | 0.109 | – | 0.0847 | 0.0876 | 0.101 | 0.108 | – | – |
